Source: PubChem BioAssay AID540267 (National Center for Advancing Translational Sciences (NCATS), 2011)
Hit rate of the full screen: of about 340,000 compounds, about 530 (0.16%) were called active. Inconclusive means that the source gave no clear call. Such entries were picked first, then a sample of the others. Cut-off read from the data, not from the text of the source: active = activity change below about -80%; inconclusive = between about -30% and that limit; inactive = weaker than that.

experiment: Small Molecules that selectively kill Giardia lamblia: qHTS; details: Giardia lamblia trophozoite viability; at 7.66 µM; active compounds read low;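 note: parasites exposed to compound for two days anaerobically before the ATP read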
Procedure, shortened: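 ATP-content bioluminescence gauges trophozoite survival. Cells (100/well) receive compound and incubate anaerobically for 48 hrs at 37 deg C; detection reagent follows for 15-30 min at room temperature.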
% is set by controls: 0 for no effect and ±100 for the full control effect.

| Compound | activity change |
| --- | --- |
| CSc1ccc(CCNC(=O)CN2C(=O)c3cccnc3Oc3ccc(C)cc32)cc1 | inconclusive: -32.7% [inhibitor] |
| COc1ccc(C2/C=C\CN(Cc3ccccc3)C(C)C(=O)N2Cc2ccc(F)cc2)cc1 (stereo not drawn) | inactive: 14% |
| CCOC(=O)c1sc(NC(=O)CSc2n[nH]c(-c3ccccc3)n2)c(C#N)c1C | inactive: 5.45% |
| CSc1ccc(CCNC(=O)CSc2ccsc2[N+](=O)[O-])cc1 | inconclusive: -62.4% [inhibitor] |
| COc1cc(-c2n[nH]c(=S)n2C(C)c2ccccc2)cc(OC)c1OC (stereo not drawn) | inconclusive: -31.2% [inhibitor] |
| COC(=O)C1CCN(C(=O)NC(C)(C)C)CC1 | inconclusive: -32.9% [inhibitor] |
| Cc1c(NC(=O)c2ccc([N+](=O)[O-])o2)cccc1-c1nc2ncccc2o1 | active: -92% |
| CN(c1ccccc1)S(=O)(=O)c1ccc(NC(=O)c2ccco2)cc1 | inactive: 4.5% |
| O=C(NC1CCCCC1)C1CC(O)CN1C(=O)OCc1ccccc1 (stereo not drawn) | inconclusive: -36.7% [inhibitor] |
| O=C(CCl)Nc1cccc(S(=O)(=O)NC2=NCCC2)c1 | inactive: -2.92% |
| CCc1ccc2nc(NC(=O)C3CCN(c4ncnc5sc(C)c(C)c45)CC3)sc2c1 | inconclusive: -31.6% [inhibitor] |
| CCOc1ccccc1C1C2=C(COC2=O)Nc2cc3c(cc21)OCO3 (stereo not drawn) | inactive: -15% |
| COC(=O)c1cccc(N(C(=O)CNC(=O)c2cccs2)C(C(=O)NCC2CCCO2)c2ccc(OC)c(OC)c2)c1 (stereo not drawn) | inconclusive: -37.1% [inhibitor] |
| COc1ccc(OCC(=O)N2CCN(C(=O)c3ccc(F)cc3)CC2)cc1 | inconclusive: -43.6% [inhibitor] |
| O=C(O)C=C(Br)Br | inconclusive: -60.8% [inhibitor] |
| COc1cccc(NC(=O)CN(C)C(=O)c2cc(-c3ccc(C)o3)nc3ccccc23)c1 | inconclusive: -36.4% [inhibitor] |
| Cc1ccccc1N1CCN(c2ncnc3c2cnn3Cc2ccc(Cl)cc2)CC1 | inactive: 0.742% |
| CCn1nc(-c2ccc(C)cc2)nc2c(=O)n(C)c(=O)nc1-2 | active: -102% |
| Cc1ccc(NC(=S)Nc2ccc(C(C)C)cc2)cc1S(=O)(=O)N1CCCCCC1 | inactive: -5.41% |
| CCC(=O)NC(=S)NNC(=O)c1ccc([N+](=O)[O-])cc1 | inconclusive: -37.5% [inhibitor] |
| COc1ccc(OC)c(NC(=O)N2CCc3ccccc3C2)c1 | inconclusive: -45.5% [inhibitor] |
| COc1ccc(S(=O)(=O)N(C(C)=O)c2ccc(OC(C)=O)c3ccccc23)cc1[N+](=O)[O-] | inconclusive: -51.2% [inhibitor] |
| Cc1ccc(C(=O)c2c(NC(=O)CSc3nnc(N)s3)sc3c2CCCC3)cc1 | inactive: -22.2% |
| O=C(Nc1ccc(-c2nnn(CC(=O)N3CCN(C(=O)c4ccco4)CC3)n2)cc1)c1ccc(F)cc1 | inactive: 5.17% |
| Cc1ccc(NC(=O)N2CCC(NC(=O)c3cccc(F)c3)CC2)cc1 | inconclusive: -33.2% [inhibitor] |
| C/C(=N\NC(=O)c1cccc(S(=O)(=O)N2CCCCC2)c1)c1ccc(C)o1 | inconclusive: -34.4% [inhibitor] |

| Compound | activity change |
| --- | --- |
| OCCNc1nc(SCc2ccccc2)nc2sc3c(c12)CCC3 | inactive: 15.2% |
| O=C(NCCc1ccccc1)c1ccc2c(c1)OCO2 | inconclusive: -39.5% [inhibitor] |
| O=c1/c(=C/c2ccc(O)c([N+](=O)[O-])c2)sc2nc3ccccc3n12 | inconclusive: -56.6% [inhibitor] |
| CC1CCN(c2c([N+](=O)[O-])nn(-c3ccc4c(c3)OCCO4)[n+]2[O-])CC1 | inconclusive: -65.8% [inhibitor] |
| Cc1ccc(C2(O)CN(c3ccccc3C)C3=[N+]2CCS3)cc1 (stereo not drawn) | inconclusive: -32.5% [inhibitor] |
| CC(OC(=O)c1cccc([N+](=O)[O-])c1)C(=O)N1CCc2ccccc21 (stereo not drawn) | inactive: 7.42% |
| COc1ccc(C(C(=O)NC(C)(C)C)N(Cc2ccc(F)cc2)C(=O)CCC(=O)Nc2cc(C)on2)cc1 (stereo not drawn) | inconclusive: -34.1% [inhibitor] |
| CCOC(=O)C1CCN(C(=O)C2CCN(S(=O)(=O)c3ccc4c(c3)CC(C)N4C(C)=O)CC2)CC1 (stereo not drawn) | inactive: 23.4% |
| CCCc1ccc(-c2ccc(/C=C/C(=O)O)cc2)nc1 | inconclusive: -51.7% [inhibitor] |
| COc1ccc(C(CNC(=O)c2ccc(-c3nc4ccccc4s3)o2)N2CCCC2)cc1 (stereo not drawn) | inactive: 6.95% |
| Cc1cc(C)cc(NC(=O)c2cc(C)n(Cc3cccs3)c2C)c1 | inconclusive: -33% [inhibitor] |
| CC(Cc1ccccc1)C(=O)NCCO (stereo not drawn) | inconclusive: -33.7% [inhibitor] |
| COc1cc(NC(=O)C2=C(N3CCOCC3)/C(=C\c3ccc(Cl)cc3Cl)CC2)cc(OC)c1OC | inactive: -6.13% |
| O=C(Nc1ccc(NC(=O)c2ccc(Cl)c(S(=O)(=O)N3CCOCC3)c2)cc1)c1ccccc1 | inactive: -14.3% |
| O=C(Nc1ccccn1)C1CCN(c2ncnc3c2nc2n3CCCCC2)CC1 | inactive: -21.8% |
| N#C/C(=C/c1ccc(O)c([N+](=O)[O-])c1)C(=O)Nc1ccccc1 | inconclusive: -60% [inhibitor] |
| Cc1ccc(/C(N)=N/OC(=O)Cc2cccc3ccccc23)cc1 | inconclusive: -32.8% [inhibitor] |
| O=C(CSc1ccccn1)Nc1ccc2c(c1)C(=O)c1ccccc1C2=O | inconclusive: -36.3% [inhibitor] |
| C=CCN(c1nc(C)cc(OC)n1)S(=O)(=O)c1ccccc1 | inconclusive: -32.8% [inhibitor] |
| Cc1ccn2c(Nc3ccccc3C)c(-c3cccnc3)nc2c1 | inactive: -21.7% |
| O=C(CSc1ccc(F)cc1)Nc1ccc(Br)cc1 | inactive: -17.9% |
| CN(C)c1nc(=NCc2ccco2)ss1 | inconclusive: -73.7% [inhibitor] |
| O=C(NCc1ccc(F)cc1)c1ccc(N2CCc3ccccc32)c([N+](=O)[O-])c1 | inconclusive: -36.3% [inhibitor] |
| COc1cc(NC(=O)c2ccccc2)c(OC)cc1Cl | inactive: -0.769% |
| O=C(O)c1ccc(S(=O)(=O)N2CCOCC2)o1 | inconclusive: -32.5% [inhibitor] |
| Cc1ccc(O)c([C@H](CCN(C(C)C)C(C)C)c2ccccc2)c1 | inconclusive: -38.9% [inhibitor] |

| Compound | activity change |
| --- | --- |
| CC(C)(C)CC(=O)Nc1cc2c3c(c1)CCN3C(=O)CC2 | inconclusive: -30.5% [inhibitor] |
| COc1cccc(NC(=O)Nc2ccc3c(c2)nc(C)n3C)c1 | inconclusive: -52.7% [inhibitor] |
| CCC(C)c1ccccc1OCCCN(C)Cc1ccccc1 (stereo not drawn) | inconclusive: -31.2% [inhibitor] |
| CN=c1scc(-c2cccs2)n1/N=C/c1ccc(O)c(O)c1O | active: -92.5% |
| O=C(NN1C(=O)/C(=C/c2ccc(O)c([N+](=O)[O-])c2)SC1=S)c1ccccc1Cl | inconclusive: -61.9% [inhibitor] |
| COc1ccc(Cl)cc1NC(=O)C(C)OC(=O)C1=NNC(=O)CC1 (stereo not drawn) | inconclusive: -37.6% [inhibitor] |
| O=S(=O)(c1ccc(=S)[nH]c1)N1CCOCC1 | inconclusive: -32.9% [inhibitor] |
| O=C(CCCOc1ccccc1)Nc1nc2ccccc2[nH]1 | inactive: -2.79% |
| O=C(N/N=C\c1ccc(O)c([N+](=O)[O-])c1)C1COc2ccccc2O1 (stereo not drawn) | inconclusive: -52.2% [inhibitor] |
| COc1ccc([N+](=O)[O-])cc1NC(=O)c1ccc(N2C(=O)CCC2=O)cc1 | inconclusive: -33.7% [inhibitor] |
| COc1ccccc1C(=O)/C=C/c1ccc(N2CCCCC2)c([N+](=O)[O-])c1 | inconclusive: -44.7% [inhibitor] |
| COc1ccc(S(=O)(=O)N2CCN(CC3CC=CCC3)CC2)cc1 (stereo not drawn) | inconclusive: -32.1% [inhibitor] |
| CCn1cc(C(=O)N2CCN(c3ccccc3F)CC2)c(=O)c2ccc(C)nc21 | inconclusive: -36% [inhibitor] |
| Cc1ccc(NC(=O)c2ccc(CNc3c(N4CCC(C)CC4)c(=O)c3=O)cc2)cc1 | inactive: -4.21% |
| COC(=O)CSc1cc(C(=O)c2nccn2C)c2ccccc2n1 | inconclusive: -32.3% [inhibitor] |
| O=C1NC(Cc2ccccc2)C(=O)N1Cc1cc([N+](=O)[O-])cc2c1OCOC2 (stereo not drawn) | inconclusive: -30.7% [inhibitor] |
| COc1ccc(C(=O)Nc2ccc3[nH]ccc3c2)cc1 | active: -88.6% |
| CCCc1ccc(OCc2ccc(C(=O)Nc3cccc(C)n3)o2)c(OC)c1 | inconclusive: -43.2% [inhibitor] |
| CCCC(=O)N1CCCC(c2nc(-c3cccc(OC)c3)no2)C1 (stereo not drawn) | inconclusive: -36.6% [inhibitor] |
| O=C(CCCCC(=O)NCCCc1ccccc1)NCCCc1ccccc1 | inconclusive: -32.5% [inhibitor] |
| O=C(Nc1ccc2c(c1)OCCO2)c1cccs1 | inconclusive: -44.4% [inhibitor] |
| CC(C)NC(=O)NC(=O)COC(=O)c1ccccc1F | inactive: -6.75% |
| Cc1ccccc1NC(=O)c1cnc2ccccn2c1=O | inconclusive: -30.4% [inhibitor] |
| COc1ccc(-n2nc(C(=O)NCC(=O)NCCCN3CCCCCC3)c3ccccc3c2=O)cc1Cl | inactive: 7.19% |
| Cc1cc2cc(CNC(=O)Cc3cccs3)ccc2n1C | inactive: 4.34% |
| CCOC(=O)Nc1sc2c(c1C#N)CCCC2 | inactive: 2.75% |
